From the RNAGym collection of RNA variant scans (doi:10.1093/nar/gkz1192) come the findings set out here.

Sequences and labels used below:
B1: CPEB3 Ribozyme (parent)
chain: UAACAGGGGGCCACAGCAGAAGCGUUCACGUCGCAGCCCCUGUCAGAUUCUGGUGAAUCUGCGAAUUCUGCUGUAUAUCUC

Read counts are not given, so values of variants with three or more changes are uncertain.

The variants in the series derive from B1. The series can be described thus: self-cleavage, relative activity (ratio to wild type); higher = more cleavage; in vitro, sequencing. In a few lines: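 After error-prone PCR and barcoding, CPEB3 ribozyme mutant libraries were transcribed with T7 RNA polymerase at 37°C for 5 hours, then given 15 min with DNase I before an EDTA stop, and they cleaved during both steps. Reverse transcription with template switching preceded Illumina sequencing. Relative activity divides a variant's cleaved/total read fraction by the unmutated ribozyme's. At least 5 reads were required per variant, and three batches were averaged.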
Regarding AAACAGGGGGCCACAGCAGAAGCGUUCACGUCGCAGCCCCAGUCAGAUUCUGGUGAGUCUGCGAAUUCUGCUGUAUAUCUC [U1A U41A A57G], the self-cleavage was found to be 0.46.

As to CGACAGGGGGCCACAGCAUAAGCGUUCACGUCGCAGCCCCUGUCAGAUUCUGGUGAAUCGGCGGAUUCUGCUGUAUAUCAC [U1C A2G G19U U60G A64G U80A], the self-cleavage is 0.12.

Consider AAACAGGGGGCCACAGCAGAAGCGUUCACGACGCAGCCCCUGUCAGAUUCUGGUGAGUCUGCGAAUCCUGCUGUAUAUCUC [U1A U31A A57G U67C], for which the self-cleavage was 0.14.

For AAACAGGGGGCCACAGCAGAAGCGUUCACGCCGCGGCCCCUGUCAGACUCUGGCGAAUCUGCGAAUUCUGGUGUAUAUCUC [U1A U31C A35G U48C U54C C71G], the self-cleavage is 0.31.

Regarding AAACAGGGGGCCACAGCAGAAGCGUUCACGUCGCAGCCCCUGUCAGAUUCUGGUGAAUCCGCGAAUUCUGCUGUAUAUCAC [U1A U60C U80A], the self-cleavage amounted to 0.59.

As to AAACAGGGGGCCACAGCAGAAGCGUUCACGUCGCAGCCCCAGCCAGAUUCUGGUGGGUCUGCGAAUUCUGCUGUAUAUCUC [U1A U41A U43C A56G A57G], the self-cleavage is 0.22.

CAGCGGGGGGCCACAGCAGAAGCGUUCACGUCGCAGCCCCUGUCAGAUUCUGGUCAGUCUGCGAAUUCUGCCGUUUAUCUC [U1C A3G A5G G55C A57G U72C A75U]: the self-cleavage was found to be 0.32.

Regarding CGACAGGGGGCCACAGCAGAAGCGCCCACGUCGCAGCCCCUGUCAGAUUCUGGUGAAUCUGCGAAUUCUGCUGUAUAUCUC [U1C A2G U25C U26C], the self-cleavage turned out to be 0.58.

Regarding AAACAGGGGGCCACAGCAGAAGCGUUCACGUCGCAGCCCCUGUCAGAUUCAGGUGAGUCUGCGGAUUCUGCUGUAUAUCUC [U1A U51A A57G A64G], the self-cleavage turned out to be 0.45.

CUACAGGGGGCCACAGCAGAAGCGUCCACGUCGCAGCCCCUGUCAAAUUCCGGUGAAUCUGCGGAUUCUGCUGUUUAUCUC [U1C A2U U26C G46A U51C A64G A75U]: the self-cleavage worked out at 0.04.

Regarding AAACAGGGGGCCACAGCAGAAGCGUUCACGUCGCAGCCCCUGUCAGAUUCAGGUGAGUCUGCGAAUUCUGCUGUGUAUCUC [U1A U51A A57G A75G], the self-cleavage stood at 0.39.

In the case of AAACAGGGGGCCACAGCAGAAGCGUUCACGCCGCAACCCCUGUCGGAUUCUGGUGAAUCUGCGAAUUCAGCUGUAUAUCUC [U1A U31C G36A A45G U69A], the self-cleavage is 0.19.

For CACCAGGGGACCACAGCAGAAGCGUUCACGUCGCAGCCCCUGUCAGAUUCUGGUGAAUCUGCGAAUCCUGCUGUAUAUCUC [U1C A3C G10A U67C], the self-cleavage amounted to 0.05.

As to AAACAGGGGGCCACAGCAGAAGCGUUCACGUCGCAGCCCCUGUCAGAUUCUGGAGAAUCUGCGAAUUCUGCUGUAUAUCCC [U1A U54A U80C], the self-cleavage came to 1.12.

Regarding CUACAGGGGGCCACAGCAGAAGCGUUCAAGUCGCAGCCCCAGUCAGAUUCUGGAGAAUCUGCGAAUUCUGCUGUAUAUCCC [U1C A2U C29A U41A U54A U80C], the self-cleavage was determined as 0.37.

As for AAACAGGGGGCCACAGCAGAAGCGUUCACGUCGCAGCCCCUGUCAGAUUCUGGUGAAUCCGCGAAUUCUGCAGUAUAUCUC [U1A U60C U72A], the self-cleavage worked out at 0.18.

Consider CUACAGGGGGCCACAGCGGAAGCGUUCACGUCGCAGCCCCUGUCAGAUUCUGGUGUCUCUGCGAAUUCUGCUGUAUAUCUC [U1C A2U A18G A56U A57C], for which the self-cleavage is 0.31.

Turning to CGACAGGGGGCCACAGCAGAAGCGUUCACGUCGCAGCCCCCGACAGAUUCUGGUGAAUCUGCGAAUUCUGCUGUAUAUCUC [U1C A2G U41C U43A], the self-cleavage came out at 0.71.

CGACAGGGGGCCCCAGCAGAAGCGCUCACGUCGCAGCCCCUGUCAGAUUCUGGUGAAUCUGCGAGUUCUGCUGUAUAUCUC [U1C A2G A13C U25C A65G]: the self-cleavage stood at 0.

For the variant CGACAGGGGGCCACAGCAGAAGCGUUCACGUCGCAGCCCCUGUCAGGUUCUGGUGAAUCUGCGAAUUCUGCUGUAUAUCUC [U1C A2G A47G], the self-cleavage was found to be 0.4.

As for CGACAGGGGGCCACAGCAGAAGCGUUCACGUCGCAGCCCCUGUCAGCUUCUGGUGAAUCUGCGAAUUCUGCUGUAUAUCUC [U1C A2G A47C], the self-cleavage is 0.5.

As for CUACAGGGGGCCACAGCAGAAGCGUUCGCGUCGCAGCCCCCGUCAGAUACUGGUCAAUCUGCGAAUUCUGCGGUAUAUCUC [U1C A2U A28G U41C U49A G55C U72G], the self-cleavage was determined as 0.11.

For the variant CGACAGGGGGCCACAGCAGAAGCGUUCACGUCGCUGCCCCUGUCAGAUCCUAGCGAAUCAGCGAAUUCUGCUGUAUAUCUC [U1C A2G A35U U49C G52A U54C U60A], the self-cleavage stood at 0.05.

Turning to AAACAGGGGGCCACAGCAGAAGCGUUCACGUCGCAGCCCCUGUCAGAUUCUGGCGAAUCUGCGAAUUCUGCUGUAUAACUC [U1A U54C U78A], the self-cleavage is 0.94.

As to CUACAGGGGGCCUCAGCAGAAGCGUUCGCGUCGCAGCCCCUGUCCGAUUCUGGUGAAUCCGCGAAUUCUGCUGUAUGUCUC [U1C A2U A13U A28G A45C U60C A77G], the self-cleavage is 0.04.

As to CGACGGGGGGCCACAGCAGAAGCGUUCACGUCGCAGCCCCUGCCAGAUUCUGGUGAAUCUGCGAAUUCUGCUGUAUAUCUC [U1C A2G A5G U43C], the self-cleavage came out at 0.33.

On to AAACAGGGGGCCACAGCAGAAGCGUUCACGUCGCAGCCCCUGUCAGAUUCUGGUGAAUCUGCGAACUCUGCUGUAUACCUC [U1A U66C U78C], for which the self-cleavage worked out at 0.21.

AAACAGGGGGCCACAGCAGAAGCGUUCACGUCGCAGCCCCUGCCAGAUUCUGGUGAGUCUGCGAAUUCCGCUGUAUAUCUC [U1A U43C A57G U69C]: the self-cleavage came to 0.12.

In the case of AAACAGGGGGCCACAGCAGAAGCGUUCACGUCGCAGCCCCUGUCAGAUACUGGUGAACCUGCGAAUUCUGCUGUAUACCUC [U1A U49A U58C U78C], the self-cleavage was 0.29.

As for AAACAGGGGGCCACAGCAGAAGCGUUCACGACGCAGCCCCUGUCAGAUUCUGAUGAAUCAGCGAAUUCUGCUGUAUAUCUC [U1A U31A G53A U60A], the self-cleavage came to 0.17.

CUACAGGGGGCCUCAGCAGGAGCGUUCACGUCGCAGCCCUUGUCAGAUUCUGGUGAAUCUGCGAAUUAUGCUGUAUAUCUC [U1C A2U A13U A20G C40U C68A]: the self-cleavage is 0.2.

As to CGACAGGGGGCCACAGCAGACGCGUUCGCGUCGCAACCCCUGUCAGAUUCUGGUGAAUCUGCGAAUUCUGCUGCAUAUCUC [U1C A2G A21C A28G G36A U74C], the self-cleavage amounted to 0.4.

Take CUACAGGGGGCCACAGCAGAAGCGUUCACGUCGCAGCCCCUGUCAGAUUCUGGUGAAUCUGCGAAUUCUGCCGUAUAUCUC [U1C A2U U72C]: the self-cleavage turned out to be 0.5.

For CGACAGGGGGCCAUAGCAGAAGCGUUCACGUCGCAGCCCCUGUCAGAUUCUGGUGAAUCUGCGAAUUCUGCCGUAUAUCUC [U1C A2G C14U U72C], the self-cleavage came out at 0.55.
